SMILES strings stand for the structures. About 200 (0.44%) of roughly 45,000 compounds were called active. Not shown: some 7% with an inconclusive outcome. Calls come from the whole dose curve; as a rule, active = well fitted activation curve with a large enough effect; inconclusive = small, poorly fitted or top-dose-only effect; inactive = no such curve, though single readings can be large or run the other way. Some of the results follow.
Potency is the fitted concentration of half-maximal effect.

This test in a line: qHTS of TDP-43 Inhibitors: NCGC Sytravon Library Screen. For growth rescue (activation): 0% is about no effect. Note: nearly all actives have a fitted effect of over 55% in size. The conditions noted are these: yeast TDP-43 toxicity rescue, BacTiter-Glo growth, 24 h; series mostly up to 46.1 µM; growth rescue (activation): at the top concentration. The gist of the method: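 TDP-43-expressing yeast, pregrown in raffinose, seeded at OD600 0.02 in galactose medium with compound for 24 hr at 30 deg C. Growth read by BacTiter-Glo luminescence, so rescue of toxicity appears as activation.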
For `O=S(=O)(c1cccs1)N1CCN(CCc2ccccc2)CC1`, the “growth rescue (activation)” value was inactive: 14.3%.

With `Cc1cc(C(=O)OCC(=O)Nc2ccccc2C#N)c(C)o1`, the “growth rescue (activation)” value was inactive: 37.3%.

For `O=C(NCCN1C(=O)S/C(=C\c2ccc(Cl)c(Cl)c2)C1=O)c1cnccn1`, the “growth rescue (activation)” value was inactive: 16.9%.

Consider `C/C(=N\NC(=O)CN1CCCCC1)c1ccccc1O`, for which the “growth rescue (activation)” value is inactive: -1.01%.

For `N#Cc1cccc(NC(=O)COC(=O)c2ccc[n+]([O-])c2)c1`, the “growth rescue (activation)” value is inactive: 4.14%.

As for `COc1cc(CN2C[C@@H](CO)O[C@@H](n3cnc4c(NCc5ccc(F)cc5)ncnc43)C2)cc(OC)c1OC`, the “growth rescue (activation)” value is inactive: 4.66%.

Consider `NC(=O)c1ccccc1NC(=O)CCn1c(=S)oc2ccccc21`, for which the “growth rescue (activation)” value was inactive: -1.36%.

Turning to `Cc1ccc(OCC(=O)Nc2c[nH]c(=O)[nH]c2=O)cc1C`, the “growth rescue (activation)” value is inactive: 0.598%.

On to `O=C(Nc1ccc(N2CCOCC2)cc1N1CCOCC1)c1ccccc1`, for which the “growth rescue (activation)” value is inactive: 7.19%.

Take `O=C(c1ccc(N2CCOCC2)c([N+](=O)[O-])c1)N1CCN(c2ccccc2)CC1`: the “growth rescue (activation)” value is inactive: 3.36%.

As to `O=C(/C=C/c1ccc2c(c1)OCO2)NCc1ccncc1`, the “growth rescue (activation)” value is inactive: -20.4%.

`CC(=O)Nc1nc(C)c(Oc2ccc(Cl)cc2Cl)c(=O)[nH]1`: the “growth rescue (activation)” value is inactive: 12.3%.

Regarding `Cn1nccc1C(=O)OCC(=O)Nc1ccc(S(N)(=O)=O)cc1`, the “growth rescue (activation)” value was inactive: 0.582%.

Consider `Cc1cc(C(=O)N2CCCC(C(=O)c3cccc(C(F)(F)F)c3)C2)nc(C)n1` (configuration not stated), for which the “growth rescue (activation)” value is inactive: 13.3%.

With `Cc1nnc(NN2CCOCC2)[nH]c1=O`, the “growth rescue (activation)” value is inactive: 8.54%.

Turning to `Cc1nc(NC(=O)c2ccc(Cl)cc2)sc1Cc1ccc2c(c1)OCO2`, the “growth rescue (activation)” value was inactive: -0.724%.

With `COc1ccc(C(=O)c2cc([N+](=O)[O-])ccc2N2CCCC2)cc1`, the “growth rescue (activation)” value is inactive: 1.22%.

Consider `COc1ccc(OC)c(Cc2nnc(CCC(=O)NC3CCCCCCC3)o2)c1`, for which the “growth rescue (activation)” value was inactive: 11.2%.

Regarding `CC(/C=N/n1c(-c2ccc(C)cc2)n[nH]c1=S)=C\c1ccco1`, the “growth rescue (activation)” value was inactive: 8.98%.

In the case of `CC1CCCCC1NC(=O)CCCCn1c(=O)[nH]c2ccsc2c1=O` (configuration not stated), the “growth rescue (activation)” value was inactive: 5.48%.

In the case of `N#CCc1nc(-c2cc3ccccc3oc2=O)cs1`, the “growth rescue (activation)” value was inactive: -5.9%.

Regarding `Cc1cccc(N(CC(=O)Nc2ccccc2-c2ccccc2)S(=O)(=O)c2ccccc2)c1C`, the “growth rescue (activation)” value was inactive: -18.5%.

On to `CCOC(=O)C1CCN(CC(O)COCc2cccs2)CC1` (configuration not stated), for which the “growth rescue (activation)” value is inactive: 3.12%.

`Cc1cnc(NC(=O)c2cc(S(=O)(=O)N(C)C)ccc2N2CCCC2)s1`: the “growth rescue (activation)” value was inactive: -10.5%.

With `COc1ccc(C(=O)OCC(=O)N2CCN(C(=O)c3ccco3)CC2)cc1OC`, the “growth rescue (activation)” value was inactive: -6.38%.

Take `COc1ccc(C)cc1Nc1nc(C)nc2c1oc1ccccc12`: the “growth rescue (activation)” value is inactive: 13.4%.

As to `O=C(Nc1cccc(Oc2ccccc2)c1)C1Cc2c(-c3ccc4c(c3)OCO4)ccnc2O1` (configuration not stated), the “growth rescue (activation)” value is inactive: 24.3%.

`Fc1ccc(-c2csc3ncnc(Cl)c23)cc1`: the Potency is active: 14.1 µM.

As to `O=c1[nH]c(/C=C/c2ccccc2OC(F)F)nc2c1cnn2-c1ccccc1`, the “growth rescue (activation)” value was inactive: -0.191%.

In the case of `CC(C(=O)Nc1ccc(C#N)cc1)N(C)CC(=O)N(C)c1c(N)n(Cc2ccccc2)c(=O)[nH]c1=O` (configuration not stated), the “growth rescue (activation)” value was inactive: -3.93%.

As to `O=C(CCc1ccc(S(=O)(=O)NCc2ccccc2)cc1)NCC1CCCO1` (configuration not stated), the “growth rescue (activation)” value was inactive: -5.39%.

Consider `Cc1ccc(N2C(=O)Nc3ccc(Br)cc3C2(O)C(=O)NCCN(C)C)cc1C` (configuration not stated), for which the “growth rescue (activation)” value is inactive: -5.26%.

For `NS(=O)(=O)c1cccc(NC(=O)COC(=O)/C=C/c2nc3ccccc3s2)c1`, the “growth rescue (activation)” value is inactive: 15.1%.

In the case of `COC(=O)c1ccc(C2C3=C(Nc4nnnn42)c2ccccc2OC3)cc1` (configuration not stated), the “growth rescue (activation)” value is inactive: 23.2%.

In the case of `CC(C)CC(=O)NC(=S)Nc1ccc(CN2CCOCC2)cc1`, the “growth rescue (activation)” value was inactive: 1.24%.

Regarding `COc1ccc(NC(=O)COC(=O)CCc2ccc(S(=O)(=O)N3CCOCC3)cc2)cc1Cl`, the “growth rescue (activation)” value was inactive: -2.65%.

`Cc1ccc(N2CC(C(=O)N3CCC(C(=O)NC(C)(C)C)CC3)CC2=O)cc1` (configuration not stated): the “growth rescue (activation)” value is inactive: -27.6%.

`Cc1ccc(N/C=C/C(=O)c2ccccc2)cc1C`: the “growth rescue (activation)” value is inactive: 3.65%.

For `O=C(Cn1cnc2cc([N+](=O)[O-])ccc2c1=O)NCCc1ccc(F)cc1`, the “growth rescue (activation)” value is inactive: 3.98%.

On to `N#Cc1ccccc1NC(=O)c1ccc2c(c1)OCO2`, for which the “growth rescue (activation)” value is inactive: 15.1%.

Regarding `Cc1ccc(N2C(=O)[C@@H]3C(C(=O)C(c4ccccc4)c4ccccc4)=NN[C@@H]3C2=O)cc1`, the “growth rescue (activation)” value is inactive: -27.7%.

As to `O=C(CSc1nncn1-c1ccccn1)Nc1cccc(Cl)c1`, the “growth rescue (activation)” value was inactive: 5.64%.

Regarding `CCOC(=O)C1(C)CCCN1C(=O)c1cc(F)ccc1C` (configuration not stated), the “growth rescue (activation)” value is inactive: -1.19%.

Turning to `O=Cc1ccc2ccc3cccnc3c2n1`, the “growth rescue (activation)” value is inactive: -6.36%.

Take `Cc1nc2ccc(C(=O)N3CCN(c4ccccc4)CC3)cn2c1N(C)C(=O)CCc1ccccc1`: the “growth rescue (activation)” value is inactive: 6.11%.

Consider `O=C(CN1CCNC(=O)C1)NCCc1ccc(Cl)cc1Cl`, for which the “growth rescue (activation)” value is inactive: -5.92%.

On to `CCOC(=O)N1CCN(Cc2nc3ccc([N+](=O)[O-])cc3c(=O)n2-c2ccc(OC)cc2OC)CC1`, for which the “growth rescue (activation)” value was inactive: 16.6%.

Turning to `Cc1c(NC(=O)C(C)Sc2ncnc3ccccc23)c(=O)n(-c2ccccc2)n1C` (configuration not stated), the “growth rescue (activation)” value was inactive: 3.73%.

Consider `Cc1ccc(NC(=S)N(Cc2cccs2)Cc2cc3cc(C)ccc3[nH]c2=O)cc1`, for which the “growth rescue (activation)” value was inactive: 14.8%.

As for `CCCC(=O)Nc1cc(S(=O)(=O)N2CCOCC2)ccc1N1CCCCC1`, the “growth rescue (activation)” value is inactive: -3.07%.

As for `CSc1ccccc1OCc1cc(C(=O)NC(C)CCn2cccn2)no1` (configuration not stated), the “growth rescue (activation)” value was inactive: 17%.

Consider `CCOc1ccc(NC(=O)CN2C(=O)NC(C)(c3ccc(OC(F)F)cc3)C2=O)cc1` (configuration not stated), for which the “growth rescue (activation)” value was inactive: 15.1%.

As for `COc1ccc(S(=O)(=O)NC(C)C(=O)NCc2cccnc2)cc1C` (configuration not stated), the “growth rescue (activation)” value was inactive: 4.4%.

As to `CCOC(=O)C1(Cc2cccc(OC)c2)CCN(Cc2ccc(OC)c(OC)c2)CC1`, the “growth rescue (activation)” value was inactive: 13.7%.

With `O=C1CCC(C(=O)N2CCc3c(Cl)cccc3C2)CN1CCCN1CCOCC1` (configuration not stated), the “growth rescue (activation)” value is inactive: 16.7%.

As to `COc1cccc(N(C(=O)c2snc(C(N)=O)c2N)C(C(=O)NCc2ccccc2)c2ccc(O)cc2)c1` (configuration not stated), the “growth rescue (activation)” value is inactive: 15.9%.

`CC1Cc2cc(/C=C3/SC(=S)N(C)C3=O)ccc2O1` (configuration not stated): the “growth rescue (activation)” value was inactive: 1.96%.

As to `O=C(N/N=C/c1cccc([N+](=O)[O-])c1)c1cnccn1`, the “growth rescue (activation)” value was inactive: 17.6%.

As for `Cc1cc(-c2cc(C(=O)O)c3ccccc3n2)c(C)s1`, the “growth rescue (activation)” value was inactive: 1.76%.

`O=C(N/N=C/c1ccco1)c1cc(-c2ccc(Br)s2)[nH]n1`: the “growth rescue (activation)” value is inactive: 1.24%.

Consider `CC(C)c1nc(SCC(=O)Nc2nccs2)c2ccccc2n1`, for which the “growth rescue (activation)” value is inactive: 15.5%.

For `O=C(Nc1nnc([C@H]2C[C@H](O)[C@@H](CO)O2)s1)c1cccc(Cl)c1`, the “growth rescue (activation)” value was inactive: -4.87%.

`O=C(Nc1ccccc1N1CCOCC1)c1ccccc1NS(=O)(=O)c1ccc(F)cc1`: the “growth rescue (activation)” value is inactive: 18.8%.

With `CCC(C)NC(=O)CCSCCC(=O)NC(C)CC` (configuration not stated), the “growth rescue (activation)” value is inactive: -5.66%.

On to `Cc1ccc(-c2nc3c(c(=O)c4ccccc4n3C)c(=O)n2-c2ccccc2)cc1`, for which the “growth rescue (activation)” value is inactive: 0.543%.

`CN1CCN(c2ccc(C(=O)c3ccccc3)cc2[N+](=O)[O-])CC1`: the “growth rescue (activation)” value is inactive: 13.5%.

`N#CC1=C(N)OC2=C(CN(Cc3ccccc3)C/C2=C\c2cccnc2)C1c1cccnc1` (configuration not stated): the “growth rescue (activation)” value is inactive: 7.42%.

For the origin of these results see PubChem BioAssay AID1347073 (National Center for Advancing Translational Sciences (NCATS), 2019).
